Hit rate of the full screen: of about 410,000 compounds, about 6,400 (1.6%) were called active. This list was built around the results that the source calls inconclusive (neither active nor inactive); the mix of calls is not that of the screen. Calls follow the shape of the dose curve; as a rule, active = well fitted inhibition curve with a large enough effect; inconclusive = small, poorly fitted or top-dose-only effect; inactive = no such curve, though single readings can be large or run the other way. No potency is given beside an inconclusive call; the fits are too rough.
What follows are molecules tested against Glucagon-like peptide 1 receptor (Homo sapiens) (UniProt P43220) (assay: qHTS of GLP-1 Receptor Inverse Agonists (Inhibition Mode)). Settings: HEK293 GLP-1R CRE-luciferase, luminescence, 24 h, GLP-1R form is constitutively active; series mostly up to 38.3 µM.
Chain of UniProt P43220 (P43220 whole entry, looked up): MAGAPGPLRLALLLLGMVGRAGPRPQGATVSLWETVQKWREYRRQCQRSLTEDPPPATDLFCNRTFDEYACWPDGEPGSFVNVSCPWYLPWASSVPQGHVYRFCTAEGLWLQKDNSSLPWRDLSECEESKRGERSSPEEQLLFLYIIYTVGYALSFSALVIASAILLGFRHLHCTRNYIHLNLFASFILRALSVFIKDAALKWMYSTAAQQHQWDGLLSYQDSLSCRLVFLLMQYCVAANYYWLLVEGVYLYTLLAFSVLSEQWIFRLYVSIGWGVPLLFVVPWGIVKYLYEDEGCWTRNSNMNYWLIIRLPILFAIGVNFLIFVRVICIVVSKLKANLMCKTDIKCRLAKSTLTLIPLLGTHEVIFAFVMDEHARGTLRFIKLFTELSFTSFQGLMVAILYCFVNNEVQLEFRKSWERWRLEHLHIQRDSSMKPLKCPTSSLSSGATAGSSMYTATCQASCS
Summary of the method: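 GLP-1R inverse agonism mode: basal reporter luminescence in engineered HEK293 cells measured after one day of compound exposure at 37 deg C, with a 12 min room-temperature detection step.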
Cc1ccc(-n2c(/C=C/c3c(C)n(C)c4ccccc34)nc3ccccc3c2=O)cc1 was tested, and the Potency was “inactive”. For CN(C(=O)CCn1c(=S)oc2ccccc21)C1CCCCC1, the Potency was inconclusive [inhibitor, partial curve, poor fit]. In the case of CCCCOc1ccc(C2c3c(oc4ccc(C)cc4c3=O)C(=O)N2CCCN(C)C)cc1OCC (stereo not drawn), the Potency is reported as “inactive”. In the case of O=C(NNC(=O)c1cnccn1)c1ccc(Cl)c(Cl)c1, the Potency is reported as inconclusive [inhibitor, single point]. For CCCN(CC(=O)Nc1cccc(Br)c1)CC(=O)Nc1ccc(F)c(F)c1F, the Potency was inconclusive [inhibitor, partial curve, poor fit]. COCc1cccc(-c2csc(C(O)c3ccccc3)n2)c1 (stereo not drawn) was tested, and the Potency was inconclusive [inhibitor, single point]. In the case of CCN(CC)S(=O)(=O)c1cccc(NC(=O)c2ccccc2Br)c1, the Potency is reported as inconclusive [inhibitor, single point]. For CCOC(=O)c1ccc(NC(=O)COc2ccc(CNCCO)cc2OCC)cc1, the Potency was inconclusive [inhibitor, partial curve]. For O=C(N/C=C\c1ccccc1)NCc1ccc(Cl)cc1Cl, the Potency was inconclusive [inhibitor, single point]. CCc1ccccc1NC(=O)CC1S/C(=N\c2nccs2)N(CC)C1=O (stereo not drawn) was tested, and the Potency was inconclusive [inhibitor, partial curve, poor fit]. In the case of COC(=O)c1cc(-c2cc(OC)ccc2OC)nc2c1c(=O)n(C)c(=O)n2Cc1ccccc1, the Potency is reported as “inactive”. For Brc1ccc(-c2nc(-c3ccccn3)no2)o1, the Potency was inconclusive [inhibitor, partial curve, poor fit]. With CCOC(=O)N1CCc2c(sc3c2C(=O)NC(c2ccc(N(C)C)cc2)N3)C1 (stereo not drawn) the Potency was inconclusive [inhibitor, full curve]. Cc1ccc2ccc(C(Nc3ccccc3)c3ccccc3)c(O)c2n1 (stereo not drawn) was tested, and the Potency was active: 6.31 µM. O=C(NCc1ccccc1)C1CCN(S(=O)(=O)Cc2ccccc2)CC1 was tested, and the Potency was “inactive”. CCN(CC)CCNC(=O)C1CCN(C(=O)c2cnn(-c3ccccc3)c2-n2cccc2)CC1 was tested, and the Potency was “inactive”. O=C(CSc1ncn[nH]1)Nc1nc2c(F)c(F)c(F)cc2s1 was tested, and the Potency was “inactive”. For CC(C)(C)c1ccc(Oc2ccc(NC(=O)c3ccccc3C(=O)O)cn2)cc1, the Potency was inconclusive [inhibitor, full curve, poor fit]. With Cc1ccc(-n2c(SCc3ccccc3F)nc3[nH]ncc3c2=O)cc1Cl the Potency was inconclusive [inhibitor, partial curve, poor fit]. For COc1ccc(C(F)(F)F)cc1N/C=C/c1nnnn1-c1ccc(C)cc1, the Potency was inconclusive [inhibitor, single point]. S=C(NCc1ccco1)N1CCN(Cc2ccc(Cl)cc2Cl)CC1 was tested, and the Potency was inconclusive [inhibitor, partial curve, poor fit]. For Fc1ccccc1OCC1CCCN(Cc2nc(CC3CC3)no2)C1 (stereo not drawn), the Potency was inconclusive [inhibitor, single point]. COc1ccc(Sc2nc(-c3ccccn3)ncc2OC)cc1 was tested, and the Potency was inconclusive [inhibitor, partial curve, poor fit]. In the case of CC(/C=N/NC(=O)c1cc(-c2ccc(Cl)cc2)nc2ccccc12)=C\c1ccco1, the Potency is reported as inconclusive [inhibitor, full curve, poor fit]. In the case of O=C(N(c1ccccc1)c1ccccc1)N(c1ccccc1)c1ccccc1, the Potency is reported as inconclusive [inhibitor, single point]. For CCc1ccc(C2C(C(=O)Nc3ccccc3OC)=C(C)Nc3c(C(=O)Nc4ccc(C)cc4)cnn32)cc1 (stereo not drawn), the Potency was inconclusive [inhibitor, partial curve, poor fit]. With O=C(N/N=C/c1cn(-c2ccccc2)nc1-c1cc2ccccc2o1)c1cccnc1 the Potency was inconclusive [inhibitor, single point]. With COc1cccc(NC(=O)c2ccc3c(c2)OCO3)c1 the Potency was inconclusive [inhibitor, single point]. For CCOc1ccc(S(=O)(=O)Nc2ccccc2SC)cc1, the Potency was inconclusive [inhibitor, partial curve, poor fit]. CC(=O)Nc1ccc(NC(=O)c2nc(S(=O)(=O)Cc3ccc(F)cc3)ncc2Cl)cc1 was tested, and the Potency was inconclusive [inhibitor, single point]. With CCOC(=O)CN(C(=O)Cn1nnc(-c2ccc(C)cc2)n1)C(CC)C(=O)NC1CCCC1 (stereo not drawn) the Potency was inconclusive [inhibitor, single point]. In the case of COC(=O)NCC12CC3CC(C1)CC(CNC(=O)OC)(C3)C2, the Potency is reported as “inactive”. CCN(C(=O)c1cn(-c2cccc(OC)c2)c(=O)c2ccccc12)c1ccccc1C was tested, and the Potency was inconclusive [inhibitor, single point]. In the case of Brc1ccc(CNc2nc3ccccc3n2CCN2CCCCC2)cc1, the Potency is reported as inconclusive [inhibitor, partial curve, poor fit]. In the case of O=C(Nc1ccc2c(c1)OCCO2)c1ccc(Cl)cc1, the Potency is reported as inconclusive [inhibitor, single point]. With CCOc1ccc2c(c1)c(=O)c(C(=O)c1ccc3c(c1)OCO3)cn2Cc1ccc(F)cc1 the Potency was “inactive”. In the case of O=c1[nH]nnc2c1ncn2C1OC(CO)C(O)C1O (stereo not drawn), the Potency is reported as inconclusive [inhibitor, full curve, poor fit]. For Cc1nn(-c2nc(-c3ccccc3)cc(C(F)(F)F)n2)c(C)c1Cl, the Potency was inconclusive [inhibitor, single point]. For Cc1ccc(OCCSc2nc(-c3ccccc3C)nc3cc(=O)[nH]n23)cc1Cl, the Potency was inconclusive [inhibitor, single point]. In the case of COc1ccccc1N1CCN(c2ncnc3c2c(-c2ccccc2)cn3-c2cccc(Cl)c2)CC1, the Potency is reported as “inactive”. For Cn1c2ccccc2c2cc(/C=N/NC(=O)c3ccc(O)cc3O)ccc21, the Potency was inconclusive [inhibitor, full curve, poor fit]. CCCNC(=O)c1cc2c(c(-c3cccc(-c4ccccc4F)c3)n1)[C@@H](CCO)N(C(=O)CC1CC1)C2 was tested, and the Potency was inconclusive [inhibitor, single point]. In the case of O=C(Nc1ccc(F)cc1F)NC1CCCc2ccccc21 (stereo not drawn), the Potency is reported as inconclusive [inhibitor, full curve, poor fit]. In the case of CC(C)COc1cccc(C(=O)Nc2ccc(S(=O)(=O)N3CCOCC3)cc2)c1, the Potency is reported as inconclusive [inhibitor, single point]. With O=C(NCc1cccnc1)c1ccc(CS(=O)(=O)Cc2ccc(Cl)cc2)o1 the Potency was “inactive”. With O=[N+]([O-])c1cc(/C=N/O)ccc1Oc1ccccc1Cl the Potency was inconclusive [inhibitor, single point]. With CCOc1ccc(NC(=O)Cn2nnc(-c3ccccc3NC(=O)C3CC3)n2)cc1 the Potency was inconclusive [inhibitor, full curve]. For CCOc1ccc(NCc2cccn2-c2nnc(N3CCC(C(=O)NCc4ccccc4Cl)CC3)s2)cc1, the Potency was inconclusive [inhibitor, partial curve, poor fit]. With COc1ccc(-n2c(C)c([N+](=O)[O-])c3ccc(O)c(CN4CCCCC4)c32)cc1 the Potency was inconclusive [inhibitor, partial curve, poor fit]. O=C(c1ccc(F)cc1)N1CCc2c([nH]c3ccccc23)C1c1ccc(Cl)cc1 (stereo not drawn) was tested, and the Potency was inconclusive [inhibitor, partial curve, poor fit]. In the case of COc1cc2ccccc2cc1C(=O)N/N=C/c1ccc2c(c1)OCO2, the Potency is reported as active: 6.31 µM. In the case of COc1ccc(Cl)cc1NC(=O)N1CCN(S(=O)(=O)c2ccc3c(ccn3C)c2)CC1, the Potency is reported as “inactive”. For CC(=O)CC(=O)Nc1ccc(Nc2ccccc2)cc1, the Potency was inconclusive [inhibitor, partial curve]. CCN(CC1CCCN(CCc2cccc(F)c2)C1)C(=O)c1cc(C)oc1C (stereo not drawn) was tested, and the Potency was inconclusive [inhibitor, partial curve, poor fit]. For CC(C)(C)OC(=O)N1CCC(c2c(C(=O)NCc3cccs3)cnn2-c2cccc(F)c2)CC1, the Potency was inconclusive [inhibitor, single point]. For CC(C)N(CCc1ccncc1)C(=O)Nc1ccc(Cl)c(Cl)c1, the Potency was inconclusive [inhibitor, single point]. In the case of CN(C)c1ccc(Nc2ncnc3ccc(Br)cc23)cc1, the Potency is reported as inconclusive [inhibitor, partial curve, poor fit]. For O=[N+]([O-])c1ccc(C2CCCC/C2=N/OCc2ccc(F)cc2)c([N+](=O)[O-])c1 (stereo not drawn), the Potency was inconclusive [inhibitor, single point]. Cc1ccc(CNC(=O)Cc2ccc(-n3c(=O)[nH]c4ccsc4c3=O)cc2)cc1 was tested, and the Potency was inconclusive [inhibitor, partial curve, poor fit]. O=S(=O)(Nc1nc(-c2ccccc2)cs1)c1cccc(C(F)(F)F)c1 was tested, and the Potency was inconclusive [inhibitor, single point]. Cn1nc(-c2ccccc2F)c2cc(C(=O)NCc3ccccc3Cl)sc21 was tested, and the Potency was “inactive”. With COc1ccc(NC(=O)CCc2nc(-c3ccc(C)cc3)no2)cc1Cl the Potency was inconclusive [inhibitor, full curve, poor fit]. Cc1cc(C)cc(NC(=O)CN2CCN(c3ccccc3)CC2)c1 was tested, and the Potency was “inactive”.

From PubChem BioAssay AID624417 (National Center for Advancing Translational Sciences (NCATS), 2012)
Also: nearly all actives have a fitted effect of over 55% in size.
Potency is read from the fitted curve at half-maximal effect; tags tell the direction and shape of the fitted curve.
